Measured values published in PubChem BioAssay AID1347430 (National Center for Advancing Translational Sciences (NCATS), 2020).
The whole screen tested about 91,000 compounds, of which about 130 (0.14%) were called active. Inconclusive means that the source gave no clear call. Such entries were picked first, then a sample of the others. Calls come from the whole dose curve; as a rule, active = well fitted inhibition curve with a large enough effect; inconclusive = small, poorly fitted or top-dose-only effect; inactive = flat fitted curve, though single readings scatter. Where the call is inconclusive, the potency comes from a doubtful curve fit.

test system: Uracil-DNA glycosylase; experiment: Primary qHTS assay for inhibitors of Activation Induced Cytidine Deaminase (AID): UDG Counterscreen signal; conditions: FRET deamination/UDG coupled assay, UDG read, 4 h; activity change, negative = inhibition: at 115 µM (top of the series); note: nearly all actives have a fitted effect of over 65% in size
% is set by controls: 0 for no effect and ±100 for the full control effect; potency is the fitted concentration of half-maximal effect; tags give direction and shape of the fitted curve.

SMILES | Potency | activity change, negative = inhibition
COc1cc(OC)cc(-n2nnc(-c3nc(-c4ccccc4Cl)no3)c2N)c1 | inconclusive: 79.4 µM [inhibitor, partial curve, poor fit] | –
CC(=O)N1CCc2c(sc3c2c(=O)n(-c2ccccc2C)c(=O)n3Cc2cccc(F)c2)C1 | inconclusive: 79.4 µM [inhibitor, single point] | –
CCCCOc1ccc(C(=O)N(Cc2ccc(C(C)C)cc2)C2CCS(=O)(=O)C2)cc1 (configuration not stated) | – | inactive: -9.79%
CCOC(=O)c1ccc(NC(=O)CC2C(=O)N(c3ccc(F)cc3)C(=O)N2Cc2ccc3c(c2)OCO3)cc1 (configuration not stated) | inconclusive: 89.1 µM [inhibitor, single point] | –
CN1C(=O)Cc2cc(S(=O)(=O)CCC(=O)N3CCN(c4ccccc4F)CC3)ccc21 | inconclusive: 39.8 µM [inhibitor, full curve, poor fit] | –
COc1ccc(CNC(=O)c2ccc3c(c2)nc2n3CCCCC2)c(OC)c1 | inconclusive: 89.1 µM [inhibitor, single point] | –
COc1ccc(/C=C/c2noc(-c3ccccc3O)n2)cc1OC | inconclusive: 89.1 µM [inhibitor, single point] | –
C=CCn1c(C)cc(C(=O)CN2C(=O)NC(Cc3c[nH]c4ccccc34)C2=O)c1C (configuration not stated) | – | inactive: 1.38%
Cc1ccc(-n2[nH]c(CSc3nnnn3-c3ccccc3)cc2=O)cc1 | active: 89.1 µM | –
O=C(NCCc1csc(-c2cccc(F)c2)n1)c1cccs1 | inconclusive: 89.1 µM [inhibitor, single point] | –
COc1ccc(NCc2cc3cc4c(cc3n(CC(=O)Nc3ccc(C)cc3)c2=O)OCO4)cc1 | inconclusive: 2.82 µM [inhibitor, full curve, poor fit] | –
CCOC(=O)c1ccc(NS(=O)(=O)c2ccc(Br)s2)cc1 | – | inactive: 1.1%
CN(C(=O)CSc1nc2c(c(=O)[nH]1)CCCC2)c1ccccc1 | inconclusive: 89.1 µM [inhibitor, single point] | –
Fc1ccc(/C=N/Nc2cc(C(F)(F)F)ccc2Cl)cc1 | – | inactive: 0.563%
CCOc1ccc(C2Nc3ccccc3-c3nnc(SCc4ccccc4)nc3O2)cc1OC (configuration not stated) | inconclusive: 89.1 µM [inhibitor, single point] | –
CNS(=O)(=O)c1ccc(C)c(C(=O)Nc2ccc(N3CCCCC3)c3ccncc23)c1 | – | inactive: 8.45%
COc1ccc2c(C)c(CC(=O)NCc3ccccc3Cl)c(=O)oc2c1OC | inconclusive: 100 µM [inhibitor, partial curve, poor fit] | –
CC(C)NC(=S)N/N=C/c1ccccc1Br | – | inactive: -1.41%
Cc1cccc(N(C)S(=O)(=O)c2cc(-c3cnc(C4CC4)o3)ccc2C)c1 | active: 79.4 µM | –
Cc1cc(C)n(-c2nc3ccccc3nc2N2CCN(C(=O)c3ccc(Cl)cc3)CC2)n1 | inconclusive: 89.1 µM [inhibitor, single point] | –
Cc1nc(NC(=O)c2ccccc2)sc1-c1csc(Nc2ccccc2Cl)n1 | inconclusive: 89.1 µM [inhibitor, single point] | –
Fc1ccc(Nc2nc3ccccc3n3cnnc23)c(F)c1 | inconclusive: 100 µM [inhibitor, single point] | –
CCSc1nc2ccccc2c(OCc2ccccc2Cl)c1C(=O)OC | inconclusive: 79.4 µM [inhibitor, single point] | –

SMILES | Potency | activity change, negative = inhibition
O=c1c(Oc2ccccc2)coc2cc(OCc3ccccc3)ccc12 | inconclusive: 79.4 µM [inhibitor, single point] | –
COc1cccc(N2CCN(C(=O)c3cnn(-c4ccccc4Cl)c3C3CCN(C(=O)OC(C)(C)C)CC3)CC2)c1 | inconclusive: 70.8 µM [inhibitor, single point] | –
CCCCc1ccc(NS(=O)(=O)c2cc3c4c(c2)CC(=O)N4CCC3)cc1 | inconclusive: 56.2 µM [inhibitor, partial curve, poor fit] | –
O=c1[nH]c2ccc(Br)cc2c(-c2ccccc2)c1CN1CCCCC1 | inconclusive: 89.1 µM [inhibitor, single point] | –
O=C(CCC1N=C2c3ccccc3N=C(SCc3ccc(Cl)cc3)N2C1=O)NCc1cccs1 (configuration not stated) | inconclusive: 89.1 µM [inhibitor, single point] | –
CCc1ccc(C2C=C(c3ccc(Br)cc3)Nc3ncnn32)cc1 (configuration not stated) | inconclusive: 89.1 µM [inhibitor, single point] | –
Cc1ccc(N2CCN(C(=O)c3cccn4c(=O)c5ccc(Cl)cc5nc34)CC2C)cc1 (configuration not stated) | inconclusive: 100 µM [inhibitor, single point] | –
Cc1ccc(Nc2nc(N)nc(CSc3nc4ccccc4s3)n2)cc1 | inconclusive: 79.4 µM [inhibitor, partial curve, poor fit] | –
Cc1nc(-c2ccc(F)cc2)sc1CCNC(=O)c1cccs1 | active: 79.4 µM | –
COc1ccc(NC(=O)CSc2nc3ccccc3nc2N2CCCCC2)cc1 | inconclusive: 79.4 µM [inhibitor, single point] | –
COc1ccc(CCN2C(=O)N(c3cccc(OC)c3)C(=O)C2CC(=O)Nc2ccccc2)cc1 (configuration not stated) | inconclusive: 79.4 µM [inhibitor, single point] | –
O=C(NCCc1ccccc1)C(=O)NCC(c1cccs1)S(=O)(=O)c1cccs1 (configuration not stated) | inconclusive: 100 µM [inhibitor, single point] | –
O=C(Nc1onc2c1CCCC2)c1ccccc1 | – | inactive: -9.35%
COc1cccc(CNC(=O)c2sc3ncccc3c2-n2c(C)ccc2C)c1OC | inconclusive: 89.1 µM [inhibitor, single point] | –
CC(C1CC1)N(Cc1ccccc1)C(=O)CSc1cc(C(N)=O)c2ccccc2n1 (configuration not stated) | – | inactive: -3.72%
CC(=O)c1ccc(NC(=O)c2ccc(-c3nc(CSc4ccc(C)cc4)c(C)o3)cc2)cc1 | inconclusive: 89.1 µM [inhibitor, single point] | –
Cc1cccc(NC(=O)CN(c2ccc(C(C)C)cc2)S(=O)(=O)c2c(C)nn(C)c2C)c1C | inconclusive: 89.1 µM [inhibitor, single point] | –
O=C(CN1CCN(c2ccc(O)cc2)CC1)N(Cc1cccs1)C1CCS(=O)(=O)C1 (configuration not stated) | – | inactive: 1.78%
CCCOc1ccccc1-c1nc(SCC(=O)c2ccccc2)n[nH]1 | inconclusive: 100 µM [inhibitor, single point] | –
COc1ccc(C(=O)OCCOc2ccc(C#N)cc2)cc1F | – | inactive: 6.93%
C=C(C)Cn1c(SCC(=O)Nc2ccccc2C)nc2sc3c(c2c1=O)CCCC3 | inconclusive: 89.1 µM [inhibitor, partial curve, poor fit] | –
O=C(/C(=C\c1ccccc1Cl)c1nc2ccccc2o1)c1ccccc1 | – | inactive: -3.6%
c1ccc(-n2ncc3c(Nc4cccc5c4CCCC5)ncnc32)cc1 | inconclusive: 89.1 µM [inhibitor, single point] | –

SMILES | Potency | activity change, negative = inhibition
COc1ccc(-c2noc(N3CCC(C(=O)N4CCN(c5ccccc5OC)CC4)CC3)n2)cc1 | inconclusive: 50.1 µM [inhibitor, partial curve, poor fit] | –
CCCCCCCC/C=C\CCCCCCCC(=O)NCCc1ccc(O)c(O)c1 | – | inactive: -18.7%
CC(C)c1ccc(-c2nnn(Cc3cc(=O)n4ccsc4n3)n2)cc1 | inconclusive: 56.2 µM [inhibitor, partial curve, poor fit] | –
COc1cccc(-c2nc(S(=O)(=O)c3ccccc3)c(N3CCCCC3)o2)c1 | inconclusive: 79.4 µM [inhibitor, partial curve, poor fit] | –
COc1ccccc1CNC(=O)c1ccc(CS(=O)(=O)c2c(Cl)cccc2Cl)o1 | inconclusive: 70.8 µM [inhibitor, single point] | –
CCCC(=O)Nc1ccc(-c2csc(N)n2)cc1 | – | inactive: -2.63%
COc1cccc(CNC(=O)C2CCN(c3nc4ccc(Cl)cc4[nH]3)CC2)c1 | inconclusive: 89.1 µM [inhibitor, single point] | –
Cc1cc(C(c2ccccc2F)N2CCCCC2)c(NC(=O)c2ccco2)s1 (configuration not stated) | – | inactive: -13.2%
COc1cccc(C(=O)Nc2ccc(Cl)c(-c3nc4ccccc4[nH]3)c2)c1 | inconclusive: 70.8 µM [inhibitor, single point] | –
CC(C)NC(=O)CN(C)CC(O)COc1ccccc1F (configuration not stated) | – | inactive: -4.57%
Cc1oc2ncn(CC(C)C)c(=O)c2c1C(=O)N1CCN(c2ccc(F)cc2)CC1 | inconclusive: 89.1 µM [inhibitor, single point] | –
COc1cccc(CSC2=NS(=O)(=O)c3ccccc3N2Cc2ccccc2)c1 | – | inactive: -2.86%
Clc1ccc2c(NN=C3CCCCC3)ccnc2c1 | – | inactive: -22.6%
CN(Cc1ccccc1Cl)C(=O)c1ccc2c(c1)CCN2S(C)(=O)=O | – | inactive: -2.18%
CCCCN1CC(c2nc3ccccc3n2CCCCOc2ccc(C)cc2C)CC1=O (configuration not stated) | inconclusive: 89.1 µM [inhibitor, partial curve, poor fit] | –
Cc1ccc(NC(=O)c2c(NC(=O)c3ccccc3Cl)sc3c2CCC3)cc1 | inconclusive: 89.1 µM [inhibitor, single point] | –
Cc1ccc2nc(Cl)c3cc(C(=O)NCCCN(C)Cc4ccccc4)sc3c2c1 | active: 79.4 µM | –
O=C(CCc1ncc(-c2ccc(F)cc2)o1)N1CCN(c2ccc([N+](=O)[O-])cc2)CC1 | – | inactive: 0.0886%
Cc1cc(OCC(=O)NCCCN(C)C)c2c(C)c(C)c(=O)oc2c1 | – | inactive: 1.48%
CCN1CCN(C(c2ccccc2Cl)c2c(O)cc(C)n(Cc3ccco3)c2=O)CC1 (configuration not stated) | inconclusive: 89.1 µM [inhibitor, single point] | –
Cc1cccc(Cn2nnc3c(=O)[nH]c(C4CCCN(C(=O)c5ccccc5Cl)C4)nc32)c1 (configuration not stated) | – | inconclusive: -35.6% [inhibitor]
